Experimental data: PubChem BioAssay AID624418 (National Center for Advancing Translational Sciences (NCATS), 2012)
About 530 (0.13%) of roughly 410,000 compounds were called active. The inconclusive results got no clear call from the source; some entries with a clear call stand among them for comparison. Calls come from the whole dose curve; as a rule, active = well fitted inhibition curve with a large enough effect; inconclusive = small, poorly fitted or top-dose-only effect, or another doubt; inactive = no such curve, though single readings can be large or run the other way. A potency beside an inconclusive call is a rough fit, not a confirmed value.

Test: qHTS of GLP-1 Receptor Inverse Agonists: Cytotox Screen
Conditions: HEK293 cAMP-luciferase reporter cells, luminescence, 24 h; activity change, negative = inhibition: at 38.3 µM (top of the series) unless noted
Method in brief: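 MLSMR compounds, 24 hr on cells at 37 deg C/5% CO2; luminescence after luciferase reagent (12 min RT). Inhibition counted as the undesired cytotoxic outcome.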
% is set by controls: 0 for no effect and ±100 for the full control effect; potency is the fitted concentration of half-maximal effect.

| SMILES | Potency | activity change, negative = inhibition |
| --- | --- | --- |
| Cc1cc(C(C#N)c2ccc(Cl)cc2)c(Cl)cc1NC(=O)c1cc(I)cc(I)c1O (centres undefined) | inconclusive: 14.1 µM [inhibitor, single point] | – |
| CC(C)S(=O)(=O)c1oc(-c2ccc(F)cc2)nc1S(=O)(=O)c1ccc(F)cc1 | inconclusive: 31.6 µM [inhibitor, single point] | – |
| CCn1nc(-c2ccccc2)nc2c(=O)n(C)c(=O)nc1-2 | inconclusive: 5.62 µM [inhibitor, partial curve, poor fit] | – |
| CCCc1cnc(Nc2nc(C(N)Cc3ccc(OC)cc3)cs2)nc1 (centres undefined) | inconclusive: 11.2 µM [inhibitor, single point] | – |
| Cn1cc(SCC(=O)Nc2nc3ccccc3s2)c2ccccc21 | inconclusive: 28.2 µM [inhibitor, single point] | – |
| Cn1ccc(NC(=O)CCl)n1 | inconclusive: 22.4 µM [inhibitor, single point] | – |
| COc1ccc(C(=O)C(CN2CCOCC2)c2ccccc2)cc1F (centres undefined) | inconclusive: 10 µM [inhibitor, partial curve, poor fit] | – |
| C[C@]12CC[C@H](O)CC1=CCC1C2CC[C@]2(C)C(=O)[C@H](Br)CC12 (some centres undefined) | inconclusive: 1.41 µM [inhibitor, full curve, poor fit] | – |
| NC(=S)NN=C1CCC2(CCCCC2)CC1 | inconclusive: 22.4 µM [inhibitor, single point] | – |
| COC1C(C)OC(OC2CC(C)(O)Cc3cc4c(c(O)c32)C(=O)c2c(O)cc3c(c2C4=O)OC2OC3(C)C(O)C(N(C)C)C2O)C(OC)C1(C)OC (centres undefined) | inconclusive: 35.5 µM [inhibitor, partial curve, poor fit] | – |
| Cc1cc(C)cc(NC(=O)Cn2c(=O)oc3cc(S(=O)(=O)N4CCC(C)CC4)ccc32)c1 | inconclusive: 28.2 µM [inhibitor, single point] | – |
| COc1ccc(CNCCc2c(C)[nH]c3ccc(OC(F)(F)F)cc23)c(OC)c1 | inconclusive: 12.6 µM [inhibitor, partial curve, poor fit] | – |
| CCCCCN1C(=O)c2ccccc2[C@@]2(C(=O)OCC)Cc3cc(OC)ccc3[C@@H]12 | inconclusive: 12.6 µM [inhibitor, single point] | – |
| O=c1[nH]c2ccccc2n1C1CCN(C(c2cccs2)c2nnnn2-c2ccc3c(c2)OCCO3)CC1 (centres undefined) | inconclusive: 3.98 µM [inhibitor, partial curve, poor fit] | – |
| CCOC(=O)[C@]12Cc3cc(Cl)ccc3[C@H]1N(C)C(=O)c1cc(OC)ccc12 | inconclusive: 28.2 µM [inhibitor, single point] | – |
| CCC[C@@H](CN[C@@H](CNC)C(C)C)NCCCCc1ccccc1 | inconclusive: 28.2 µM [inhibitor, single point] | – |
| Cc1ccc(-n2c(SCC(=O)Nc3cccc(S(N)(=O)=O)c3)nc3ccccc32)cc1 | inconclusive: 28.2 µM [inhibitor, single point] | – |
| C[C@]12CC[C@H]3C(CCC4(O)CC(O)CC[C@]34C=O)C1=CC[C@H]2c1ccc(=O)oc1 (some centres undefined) | inconclusive: 5.62 µM [inhibitor, full curve] | – |
| CC1=CC2=NC(=O)/C(=C\c3cccn3CCOc3cc(C)ccc3C)C(=N)N2O1 | inconclusive: 10 µM [inhibitor, single point] | – |
| Cc1cccc(Nc2cc(C)c3c(O)cccc3n2)c1C | inconclusive: 17.8 µM [inhibitor, partial curve, poor fit] | – |

| SMILES | Potency | activity change, negative = inhibition |
| --- | --- | --- |
| COc1ccc(C(=O)c2nc3ccccc3n2C(C)C)cc1 | – | inactive: 3.5% |
| Cc1ccc(Sc2ccc([N+](=O)[O-])cc2[N+](=O)[O-])nc1 | inconclusive: 20 µM [inhibitor, partial curve, poor fit] | – |
| Cc1sc2ncnc(N3CCC(C(=O)NCC(=O)Nc4ccc(F)c(F)c4)CC3)c2c1C | inconclusive: 10 µM [inhibitor, single point] | – |
| O=C(CN1CC(c2ccccc2)CC1=O)Nc1cccc(F)c1 (centres undefined) | – | inactive: 3.57% |
| Cc1ccc(Cn2c(=N)n(CC(O)COc3ccccc3)c3ccccc32)cc1 (centres undefined) | inconclusive: 11.2 µM [inhibitor, partial curve, poor fit] | – |
| COc1ccc(-n2nnnc2C(c2cccc(OC)c2OC)N2CCC(n3c(=O)[nH]c4ccccc43)CC2)cc1 (centres undefined) | inconclusive: 10 µM [inhibitor, partial curve] | – |
| CCOP(=S)(OCC)SCC(=O)NC(C(=O)O)C(C)C (centres undefined) | inconclusive: 7.08 µM [inhibitor, partial curve, poor fit] | – |
| Cc1ccc(OCC(=O)N2CCN(Cc3cccnc3)CC2)cc1 | – | inactive: 1.75% |
| O=C(CCl)NCc1cc(-c2ccc(Cl)cc2)no1 | inconclusive: 28.2 µM [inhibitor, single point] | – |
| CC(C)CC[n+]1ccn(C2=C([O-])c3ccccc3C(=O)/C2=N\S(=O)(=O)c2ccccc2)c1 | inconclusive: 28.2 µM [inhibitor, single point] | – |
| CCCCN1CCC(O)(c2ccccc2)C(C(=O)c2ccccc2)C1 (centres undefined) | – | inactive: 0.992% |
| Cc1ccc(OCCNC(=O)c2cncc(Br)c2)cc1C | inconclusive: 28.2 µM [inhibitor, single point] | – |
| CC(C)NC(=O)NC(=O)CSc1nnc(COc2ccccc2F)n1C(C)C1CC2CCC1C2 (centres undefined) | inconclusive: 28.2 µM [inhibitor, single point] | – |
| Cc1ccc(-c2nnc(Sc3nc4ccccc4o3)c3ccccc23)cc1 | inconclusive: 28.2 µM [inhibitor, single point] | – |
| NCCc1ccc(OCc2ccccc2)c(OCc2ccccc2)c1 | inconclusive: 28.2 µM [inhibitor, single point] | – |
| CCN(c1ccccc1)S(=O)(=O)c1ccc(C(=O)NC2CCN(Cc3ccccc3)CC2)cc1 | inconclusive: 8.91 µM [inhibitor, partial curve] | – |
| C[C@@H]1O[C@@H](O[C@H]2C[C@@H](O)[C@]3(CO)[C@@H]4C(CC[C@]3(O)C2)[C@@]2(O)CC[C@H](C3COC(=O)C3)[C@@]2(C)C[C@H]4O)[C@H](O)[C@H](O)[C@H]1O (some centres undefined) | inconclusive: 1 µM [inhibitor, full curve, poor fit] | – |
| Nc1ccc(Br)c2c1C(=O)c1ccccc1C2=O | inconclusive: 11.2 µM [inhibitor, partial curve] | – |
| COc1cc2c(cc1/C=C/[N+](=O)[O-])OCO2 | inconclusive: 28.2 µM [inhibitor, single point] | – |
| O=c1c2ccccc2nc(/C=C/c2ccc([N+](=O)[O-])o2)n1-c1ccc(O)cc1 | inconclusive: 5.62 µM [inhibitor, partial curve, poor fit] | – |

| SMILES | Potency | activity change, negative = inhibition |
| --- | --- | --- |
| CC(=O)Nc1c(C(=O)Nc2ccc3c(c2)OCO3)oc2ccccc12 | inconclusive: 2 µM [inhibitor, full curve, poor fit] | – |
| Cc1ccc(/C=C2\C(=O)NC(=S)N(c3ccccc3F)C2=O)s1 | inconclusive: 12.6 µM [inhibitor, single point] | – |
| O=[N+]([O-])c1cc([As](=O)(O)c2ccc(O)c([N+](=O)[O-])c2)ccc1O | inconclusive: 7.94 µM [inhibitor, partial curve, poor fit] | – |
| COC(CN(C(=O)CCl)C(C(=O)NC1CCCCC1)c1ccccc1C)OC (centres undefined) | inconclusive: 28.2 µM [inhibitor, single point] | – |
| O=c1oc2ccccc2c(O)c1[C@H]1c2ccc(O)cc2Oc2c1c(=O)oc1ccccc21 | inconclusive: 11.2 µM [inhibitor, single point] | – |
| CC1=NN(c2ccccc2)C(=O)/C1=C/c1c(O)[nH]c(=S)[nH]c1=O | – | inactive: 15.1% |
| O=C(N/N=C/c1ccco1)c1cc(-c2ccc3ccccc3c2)n[nH]1 | inconclusive: 28.2 µM [inhibitor, single point] | – |
| Cn1c(CSCc2ccc(Cl)c(Cl)c2)n[nH]c1=S | inconclusive: 10 µM [inhibitor, single point] | – |
| C[CH2][Hg][S]c1ccccc1C(=O)O | inconclusive: 11.2 µM [inhibitor, partial curve, poor fit] | – |
| CC1CCC(C(C)C)C(OCC(O)CN2CCCC(C)C2)C1 (centres undefined) | inconclusive: 11.2 µM [inhibitor, single point] | – |
| OC(CON=C1c2ccccc2-c2ccccc21)CN1CCNCC1 (centres undefined) | inconclusive: 28.2 µM [inhibitor, single point] | – |
| CCOC(=O)c1cnn(-c2ccccc2)c1-c1ccccc1 | – | inactive: 73.5% |
| O=c1oc2cccnc2n1CCS(=O)(=O)c1ccc(F)cc1 | inconclusive: 28.2 µM [inhibitor, single point] | – |
| CC[C@H](C)/C=C(C)/C=C/C1=CC2=C(Cl)C(=O)[C@](C)(OC(C)=O)C(=O)C2=CO1 | inconclusive: 10 µM [inhibitor, partial curve, poor fit] | – |
| COc1ccc(NC(=O)/C(C#N)=C/C=C/c2ccco2)cc1 | inconclusive: 7.08 µM [inhibitor, partial curve, poor fit] | – |
| Cc1cc(C)cc(NC(=S)NC2CC3CCC(C2)N3Cc2ccco2)c1 (centres undefined) | inconclusive: 6.31 µM [inhibitor, partial curve, poor fit] | – |
| CCOC(=O)[C@]12Cc3c(cc(OC)c(OC)c3OC)[C@H]1N(C1CCCCC1)C(=O)c1ccccc12 | inconclusive: 11.2 µM [inhibitor, single point] | – |
| COc1ccccc1N1C(=O)NC(=O)/C(=C/c2ccc([N+](=O)[O-])s2)C1=O | inconclusive: 28.2 µM [inhibitor, single point] | – |
| CSc1nsc2nc(=O)c(/C=C3\C(C)=Nc4ccc(C)cc43)c(N)n12 | inconclusive: 12.6 µM [inhibitor, partial curve, poor fit] | – |
